Laboratory results as given in PubChem BioAssay AID1345083 (National Center for Advancing Translational Sciences (NCATS), 2018).
Among all 94,000 compounds or so, about 6,200 (6.6%) were called active. The inconclusive results got no clear call from the source; some entries with a clear call stand among them for comparison. Calls come from the whole dose curve; as a rule, active = well fitted inhibition curve with a large enough effect; inconclusive = small, poorly fitted or top-dose-only effect; inactive = flat fitted curve, though single readings scatter. Potencies of inconclusive entries are doubtful fits and often do not repeat.
% is set by controls: 0 for no effect and ±100 for the full control effect; potency is the fitted concentration of half-maximal effect; tags give direction and shape of the fitted curve.

Experiment: Cytotoxic Profiling in HEK 293 Cell Line of Diverse Libraries Using Quantitative High-Throughput Screening; note: nearly all actives have a fitted effect of over 60% in size
Conditions: HEK 293 viability, ATP luminescence (CellTiter-Glo), 48-72 h; activity change, negative = cytotoxicity: at 115 µM (top of the series) unless noted; series mostly up to 115 µM
Outline: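 ATP-coupled CellTiter-Glo luminescence served as viability read-out, recorded 10 min after reagent addition at room temperature. HEK 293 cells, 250 cells/well, had been incubated with pintool-transferred compound for 48 or 72 hr at 37 degree Celsius.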
With Oc1ccccc1-c1cc(-c2cccnc2)c2cncn2c1 the Potency was active: 100 µM.
In the case of COc1ccccc1-c1cc(C(=O)NCCc2ccccc2)nn2cnnc12, the Potency is reported as inconclusive: 79.4 µM [inhibitor, partial curve].
For CC[C@H]1CN(C(=O)Nc2cccc(C(F)(F)F)c2)CC[C@H]1CC(=O)NCc1ccco1, the Potency was inconclusive: 89.1 µM [inhibitor, partial curve, poor fit].
With CC(C)(C)C(=O)NC1CCN(c2ccnc3ccnn23)C1 (stereo not given) the “activity change, negative = cytotoxicity” value was inactive: -18.3% [at 172 µM].
With COc1cccc(-c2cc(C(=O)NCc3cccc(F)c3)c3cnn(C)c3n2)c1 the Potency was inconclusive: 25.1 µM [inhibitor, full curve, poor fit].
With CCCOCCCNC(=O)c1c(C)noc1-c1ccc(OC(F)(F)F)cc1 the Potency was inconclusive: 89.1 µM [inhibitor, single point].
With CC(=O)NCCCC(=O)N1CNC(=O)C12CCN(C(=O)c1ccccc1)CC2 the “activity change, negative = cytotoxicity” value was inactive: 2.45%.
For CN1CCCC2(C1)CN(C)c1ccc(C(=O)NCCc3ccccc3)cc12 (stereo not given), the Potency was inconclusive: 112 µM [inhibitor, partial curve, poor fit].
For O=C(NCC(F)(F)F)c1nc2cccnc2n(Cc2ccccc2)c1=O, the “activity change, negative = cytotoxicity” value was inactive: 0.713%.
In the case of Cc1ccc(C(=O)NCCn2ccn3nc(-c4ccc(F)cc4)cc3c2=O)cc1F, the Potency is reported as inconclusive: 50.1 µM [inhibitor, partial curve, poor fit].
With CCCCN(Cc1ccccc1)Cc1cn[nH]c1-c1ccc(OC)cc1OC the Potency was inconclusive: 20 µM [inhibitor, full curve, poor fit].
In the case of C[C@@H]1C(=O)O[C@H]2[C@H]1CC[C@@]1(C)Cc3sc(NC(=O)NC4CCCCC4)nc3[C@@H](C)[C@H]21, the Potency is reported as inconclusive: 126 µM [inhibitor, partial curve, poor fit].
In the case of O=C(NC1CCCCC1)O[C@@H]1CO[C@H]2[C@@H]1OC[C@@H]2Nc1nccc(-c2cccs2)n1, the Potency is reported as inconclusive: 17.8 µM [inhibitor, full curve, poor fit].
For COc1ccc(-c2cc(N3CCC(NC(=O)c4ccc(NC(C)=O)cc4)CC3)n[nH]2)cc1, the “activity change, negative = cytotoxicity” value was inactive: -11.5%.
In the case of CCc1cc(=O)n(CC(=O)Nc2ccccc2OC)c(N2CCOCC2)n1, the Potency is reported as inconclusive: 79.4 µM [inhibitor, single point].
For CC(=O)N1CCn2c(nnc2C2CCCN2Cc2cn[nH]c2-c2cccs2)C1 (stereo not given), the “outcome” value was “inactive”.
In the case of Cn1cnc2cc(-c3cccc4[nH]ncc34)cc(C(=O)NCc3cccnc3)c21, the Potency is reported as inconclusive: 112 µM [inhibitor, partial curve, poor fit].
For CC1(COc2cccnc2)COc2ccc(C(=O)NC3CCC(O)CC3)cc2N1 (stereo not given), the Potency was inconclusive: 89.1 µM [inhibitor, partial curve].
With CC(C)NC(=O)N1CCC2(CC1)CN(C(=O)CCCN)Cc1ccccc1O2 the “outcome” value was “inactive”.
With CCCCn1c(=O)c(C(=O)N2CCN(C(=O)c3ccc(Cl)cc3)CC2)nc2cccnc21 the “activity change, negative = cytotoxicity” value was inactive: 2.55%.
For O=C(NCc1cccnc1)c1cnc2c(c1)N([S+](=O)([O-])c1cccnc1)CCC2, the “activity change, negative = cytotoxicity” value was inactive: -12.9% [at 172 µM].
For O=C(NCc1ccc(F)cc1)C1CCCN(c2ccnc3ccnn23)C1 (stereo not given), the Potency was inconclusive: 112 µM [inhibitor, partial curve, poor fit].
For Cc1nn(-c2ccccc2)c2c1C(C1CC1)N(C1CCN(C(=O)C3CCCC3)C1)C2=O (stereo not given), the Potency was inconclusive: 44.7 µM [inhibitor, partial curve, poor fit].
With COCc1cccc(-c2n[nH]c3c2CC(=O)N(Cc2ccc(OC)cc2)C3)c1 the Potency was inconclusive: 31.6 µM [inhibitor, full curve].
With N#Cc1cccc(CN[C@H]2CO[C@H]3[C@@H]2OC[C@H]3OC(=O)Nc2ccc(Oc3ccccc3)cc2)c1 the Potency was inconclusive: 56.2 µM [inhibitor, partial curve, poor fit].
With O=C(Nc1cccc(C(F)(F)F)c1)N[C@H]1CO[C@H]2[C@@H]1OC[C@@H]2n1nnnc1Oc1ccc(-n2ccnc2)cc1 the Potency was active: 31.6 µM.
For COc1cccc(-c2cc3c(=O)n(CCNC(=O)C(C)Oc4ccccc4)ccn3n2)c1 (stereo not given), the Potency was active: 44.7 µM.
For O=C(NCc1ccc(Cl)cc1)c1ccn2nccc2c1, the Potency was inconclusive: 79.4 µM [inhibitor, partial curve, poor fit].
With CC(C)N1C[C@@H](C(=O)O)C[C@H](C(=O)Nc2ccc(F)cc2)C1 the “activity change, negative = cytotoxicity” value was inactive: -0.0493%.
With CCN(Cc1noc(C2CCC2)n1)C(=O)C(C)Oc1ccc2ccccc2c1 (stereo not given) the Potency was active: 35.5 µM.
With O=C(C[C@H]1NC(=O)c2ccccc2NC1=O)Nc1nc(-c2ccc3c(c2)OCO3)cs1 the Potency was inconclusive: 89.1 µM [inhibitor, single point].
With COCC1CN(C2CCC2)CC12CCN(C(=O)C1CC=CC1)CC2 (stereo not given) the Potency was inconclusive: 79.4 µM [inhibitor, partial curve, poor fit].
In the case of COC(=O)CNC(=O)NCCc1ncc(C)n1Cc1ccccc1, the “activity change, negative = cytotoxicity” value is reported as inactive: -13.9%.
In the case of Cc1ccc(-c2cccc(CN3CCCC(NC(=O)c4ccccc4C)C3)c2)cc1Cl (stereo not given), the Potency is reported as inconclusive: 89.1 µM [inhibitor, single point].
For CCC1Oc2ccc(NC(=O)c3ccc([N+](=O)[O-])cc3)cc2CN(Cc2ccc(F)cc2)C1=O (stereo not given), the Potency was inconclusive: 35.5 µM [inhibitor, partial curve, poor fit].
For O=C(NCc1ccccc1F)c1ccc2c(c1)CN(Cc1ccccc1F)CCO2, the Potency was active: 44.7 µM.
With COc1ccc(C(=O)N2CCN(c3cc(-c4cccs4)[nH]n3)CC2)c(OC)c1 the Potency was inconclusive: 56.2 µM [inhibitor, partial curve, poor fit].
In the case of Cc1noc(-c2cccc(OC3CN(C(=O)c4cccn4C)C3)c2)n1, the Potency is reported as inconclusive: 50.1 µM [inhibitor, partial curve, poor fit].
With O=C(c1cc(-c2ccccc2)n[nH]1)N1CCc2c(nc3cc[nH]n3c2=O)C1 the “activity change, negative = cytotoxicity” value was inactive: -0.185%.
In the case of CC(C)c1ccc(CN2CCCC3(CCN(C(=O)c4ccnn4C)C3)C2)cc1 (stereo not given), the Potency is reported as active: 39.8 µM.
With O=C(C1CCCN([S+](=O)([O-])c2cccc(C(F)(F)F)c2)C1)N1CCC(c2nc3ccncc3[nH]2)CC1 (stereo not given) the Potency was inconclusive: 50.1 µM [inhibitor, partial curve, poor fit].
In the case of O=[S+]([O-])(c1ccc(Br)cc1)c1nnn2c1nc(NCc1ccc(F)cc1)c1ccccc12, the “outcome” value is reported as “inactive”.
For CCc1nc(-c2ccc(OC3CCN(S(=O)(=O)Cc4ccccc4)C3)cc2)no1 (stereo not given), the Potency was active: 44.7 µM.
With CCN1c2cc(C(=O)Nc3ccc(C)cc3)ccc2C(=O)N2CCCCC21 (stereo not given) the Potency was active: 39.8 µM.
With COc1ccc(-c2cc(N3CCN(C(=O)c4ccc(N(C)C)cc4)CC3)n[nH]2)cc1 the Potency was inconclusive: 50.1 µM [inhibitor, partial curve, poor fit].
With CC1(C)CN(C(=O)c2ccccc2Oc2ccccc2)CC1(C)O (stereo not given) the “activity change, negative = cytotoxicity” value was inactive: -12.6%.
With Cn1cc(CN2C[C@H](C(=O)Nc3ccccc3)C[C@@H]2c2cccc(C(F)(F)F)c2)cn1 the Potency was inconclusive: 112 µM [inhibitor, partial curve, poor fit].
With O=C(c1cc(F)ccc1Cl)N1CCN(C(=O)c2nnn3c2COC(c2ccccc2)C3)CC1 (stereo not given) the Potency was inconclusive: 50.1 µM [inhibitor, partial curve, poor fit].
For CC(=O)Oc1ccccc1C(=O)Nc1ccc2c(c1)CN(CCc1ccc(F)cc1)C(=O)C(C)O2 (stereo not given), the Potency was inconclusive: 35.5 µM [inhibitor, full curve, poor fit].
In the case of Fc1cccc(C2CCCCCN2Cc2cn(-c3ccccc3)nn2)c1 (stereo not given), the Potency is reported as inconclusive: 44.7 µM [inhibitor, partial curve, poor fit].
For COc1ccccc1CC(=O)N1CCCc2ncc(C(=O)N3CCCC[C@@H]3Cc3ccccc3)cc21, the Potency was inconclusive: 89.1 µM [inhibitor, partial curve, poor fit].
For O=C1NC2(CN(Cc3ccccc3C(F)(F)F)C2)Oc2ccccc21, the Potency was active: 39.8 µM.
In the case of Cc1ccc(-c2ccccc2CN2CCC(C(=O)N3CCC(C#N)CC3)CC2)cc1Cl, the Potency is reported as inconclusive: 50.1 µM [inhibitor, partial curve, poor fit].
In the case of COc1ccc(Nc2ccnc(N3CCC(C(=O)NCCCc4ccccc4)CC3)n2)cc1, the Potency is reported as inconclusive: 44.7 µM [inhibitor, partial curve, poor fit].
In the case of CC(=O)N1CCCN(c2ncnc3c2CN(C2CCCCC2)C(=O)CN3C)CC1, the “activity change, negative = cytotoxicity” value is reported as inactive: -19.4%.
For NC(=O)COc1ccc(C(=O)N[C@@H]2CNCCC[C@H]2O)cc1, the “activity change, negative = cytotoxicity” value was inactive: -3.09% [at 172 µM].
With O=C(NCc1ccc(Cl)cc1)c1ccc2nnc(Cc3ccc(Cl)cc3)n2c1 the Potency was active: 44.7 µM.
In the case of O=C(C1CCCN([S+](=O)([O-])c2cccc(C(F)(F)F)c2)C1)N1CCC(c2nc3ccncc3[nH]2)C1 (stereo not given), the “activity change, negative = cytotoxicity” value is reported as inactive: -19.5%.
With O=C(c1cccs1)N1CCCC(c2noc(COc3ccccc3F)n2)C1 (stereo not given) the Potency was inconclusive: 79.4 µM [inhibitor, single point].
In the case of O=C(Nc1ccc2c(c1)CN(Cc1ccccc1F)C(=O)CO2)c1ccccc1F, the Potency is reported as inconclusive: 79.4 µM [inhibitor, partial curve].
In the case of O=C(c1cccc(C(F)(F)F)c1)N1CC(=O)N(C2CCCCC2)CC(O)C1 (stereo not given), the Potency is reported as inconclusive: 89.1 µM [inhibitor, single point].
For CCCOc1ccc(CN2CCc3nc(N(C)C)[nH]c(=O)c3CC2)cc1OC, the “activity change, negative = cytotoxicity” value was inactive: 8.93%.
In the case of O=[S+]1([O-])NC2(CCCN(Cc3ccccc3)C2)CNc2ncccc21 (stereo not given), the “activity change, negative = cytotoxicity” value is reported as inactive: -23.9% [at 172 µM].
With COCCCn1c(=O)c(C(=O)NC(C)C)nc2cccnc21 the “activity change, negative = cytotoxicity” value was inactive: -15.7% [at 172 µM].
In the case of Cc1ncsc1C1N(C2CCN(S(=O)(=O)c3ccccc3)CC2)C(=O)C12CCCC2 (stereo not given), the Potency is reported as inconclusive: 50.1 µM [inhibitor, partial curve, poor fit].
